Measured values reported in PMC12820563, “FoxP3 forms a head-to-head dimer in vivo and stabilizes its multimerization on adjacent microsatellites”.
The list shows a part of the results.

Each sequence was assayed against T1, MBP-FoxP1dN (Mus musculus, UniProt P58462 326-579) (assay: PD-seq (MBP pull-down with sequencing); 20 mM Tris-HCl pH 7.5, 100 mM NaCl, 1.5 mM MgCl2, 0.4 uM protein, 0.1 uM dsDNA library, 30 min, room temperature, amylose pull-down; high values mean tight binding). Conditions: protein: recombinant; tags: His6-MBP; chain copies: 2; dsDNA, one strand shown.
T1 sequence: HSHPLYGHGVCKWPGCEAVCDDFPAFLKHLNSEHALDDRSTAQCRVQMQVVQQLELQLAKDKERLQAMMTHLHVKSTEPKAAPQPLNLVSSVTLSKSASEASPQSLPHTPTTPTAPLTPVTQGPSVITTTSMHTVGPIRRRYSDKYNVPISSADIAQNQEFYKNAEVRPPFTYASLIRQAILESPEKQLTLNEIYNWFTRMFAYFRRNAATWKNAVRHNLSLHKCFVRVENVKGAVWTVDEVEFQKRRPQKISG
Method in brief: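 In Tris pH 7.5 buffer with NaCl and MgCl2, 0.4 µM His6-MBP-tagged mouse FoxP3 or FoxP1 fragment lacking the N-terminus, from E. coli, met 0.1 µM Klenow-filled double-stranded degenerate DNA library for 30 min at room temperature. Three washes on amylose resin followed capture of the complexes, then proteinase K release of DNA, PCR barcoding and Illumina sequencing. Binding is taken as pooled-replicate reads-per-million enrichment of pull-down relative to input.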
With “GATGATTGTTCTCCCAGCTGATGAATTAGGCGCGTCGAGTAAACAAATTTTCCTAATCTTTCTGTTCAAGCGCCATCTAC” the binding signal was 1.03 RPM ratio (pull-down/input).
With “GATGATTGTTCTCCCAGCTGATGAATTGGCTGAGTCGAGTAAACAAATTTTCCTAATCTTTCTGTTCAAGCGCCATCTAC” the binding signal was 0.812 RPM ratio (pull-down/input).
In the case of “GATGATTGTTCTCCCAGCTGATGAATTTTAACACTCGAGTAAACAAATTTTCCTAATCTTTCTGTTCAAGCGCCATCTAC”, the binding signal is reported as 1 RPM ratio (pull-down/input).
For “GATGATTGTTCTCCCAGCTGATGAATTTATCAGTTCGAGTAAACAAATTTTCCTAATCTTTCTGTTCAAGCGCCATCTAC”, the binding signal was 1.17 RPM ratio (pull-down/input).
In the case of “GATGATTGTTCTCCCAGCTGATGAATTATGATTGTCGAGTAAACAAATTTTCCTAATCTTTCTGTTCAAGCGCCATCTAC”, the binding signal is reported as 1.45 RPM ratio (pull-down/input).
In the case of “GATGATTGTTCTCCCAGCTGATGAATTCTAGCAATCGAGTAAACAAATTTTCCTAATCTTTCTGTTCAAGCGCCATCTAC”, the binding signal is reported as 1.16 RPM ratio (pull-down/input).
“GATGATTGTTCTCCCAGCTGATGAATTCGCGTCATCGAGTAAACAAATTTTCCTAATCTTTCTGTTCAAGCGCCATCTAC” was tested, and the binding signal was 0.994 RPM ratio (pull-down/input).
“GATGATTGTTCTCCCAGCTGATGAATTTGGGTATTCGAGTAAACAAATTTTCCTAATCTTTCTGTTCAAGCGCCATCTAC” was tested, and the binding signal was 1.02 RPM ratio (pull-down/input).
“GATGATTGTTCTCCCAGCTGATGAATTGTACGACTCGAGTAAACAAATTTTCCTAATCTTTCTGTTCAAGCGCCATCTAC” was tested, and the binding signal was 0.905 RPM ratio (pull-down/input).
For “GATGATTGTTCTCCCAGCTGATGAATTTATAGAATCGAGTAAACAAATTTTCCTAATCTTTCTGTTCAAGCGCCATCTAC”, the binding signal was 1.07 RPM ratio (pull-down/input).
In the case of “GATGATTGTTCTCCCAGCTGATGAATTTTAAGCGTCGAGTAAACAAATTTTCCTAATCTTTCTGTTCAAGCGCCATCTAC”, the binding signal is reported as 0.94 RPM ratio (pull-down/input).
For “GATGATTGTTCTCCCAGCTGATGAATTAAATCTATCGAGTAAACAAATTTTCCTAATCTTTCTGTTCAAGCGCCATCTAC”, the binding signal was 0.922 RPM ratio (pull-down/input).
With “GATGATTGTTCTCCCAGCTGATGAATTCATTTGCTCGAGTAAACAAATTTTCCTAATCTTTCTGTTCAAGCGCCATCTAC” the binding signal was 1.05 RPM ratio (pull-down/input).
“GATGATTGTTCTCCCAGCTGATGAATTAAATACTTCGAGTAAACAAATTTTCCTAATCTTTCTGTTCAAGCGCCATCTAC” was tested, and the binding signal was 1.08 RPM ratio (pull-down/input).
“GATGATTGTTCTCCCAGCTGATGAATTTGAGTTATCGAGTAAACAAATTTTCCTAATCTTTCTGTTCAAGCGCCATCTAC” was tested, and the binding signal was 1.04 RPM ratio (pull-down/input).
For “GATGATTGTTCTCCCAGCTGATGAATTAGGACTGTCGAGTAAACAAATTTTCCTAATCTTTCTGTTCAAGCGCCATCTAC”, the binding signal was 0.849 RPM ratio (pull-down/input).
“GATGATTGTTCTCCCAGCTGATGAATTCAGTAGATCGAGTAAACAAATTTTCCTAATCTTTCTGTTCAAGCGCCATCTAC” was tested, and the binding signal was 0.911 RPM ratio (pull-down/input).
For “GATGATTGTTCTCCCAGCTGATGAATTGGACCGGTCGAGTAAACAAATTTTCCTAATCTTTCTGTTCAAGCGCCATCTAC”, the binding signal was 0.748 RPM ratio (pull-down/input).
